Experimental data published in PubChem BioAssay AID493035 (The Scripps Research Institute Molecular Screening Center, 2011).
About 45 (2%) of roughly 2,000 compounds were called active.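 Rule for the calls: active = inhibition above the mean of all tested compounds plus 3 SD (cut at about 49% in these data); inactive = the rest.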 The list shows a part of the results.

What follows are compounds tested against Perilipin-5 (Homo sapiens) + 1-acylglycerol-3-phosphate O-acyltransferase ABHD5 (Homo sapiens) (UniProt Q00G26+Q8WTS1) (assay: ABHD5-PLIN5 interaction inhibitors, pilot screen, cell lysate, split luciferase complementation, luminescence, NIH validation set (AID 493035;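 note: 0% = DMSO only wells while the 100% control is not stated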)). Settings: split G. princeps luciferase complementation, lysates, 4 h; at 7.9 µM, stronger effect = higher value.
UniProt Q00G26, sequence (Q00G26 whole entry, looked up): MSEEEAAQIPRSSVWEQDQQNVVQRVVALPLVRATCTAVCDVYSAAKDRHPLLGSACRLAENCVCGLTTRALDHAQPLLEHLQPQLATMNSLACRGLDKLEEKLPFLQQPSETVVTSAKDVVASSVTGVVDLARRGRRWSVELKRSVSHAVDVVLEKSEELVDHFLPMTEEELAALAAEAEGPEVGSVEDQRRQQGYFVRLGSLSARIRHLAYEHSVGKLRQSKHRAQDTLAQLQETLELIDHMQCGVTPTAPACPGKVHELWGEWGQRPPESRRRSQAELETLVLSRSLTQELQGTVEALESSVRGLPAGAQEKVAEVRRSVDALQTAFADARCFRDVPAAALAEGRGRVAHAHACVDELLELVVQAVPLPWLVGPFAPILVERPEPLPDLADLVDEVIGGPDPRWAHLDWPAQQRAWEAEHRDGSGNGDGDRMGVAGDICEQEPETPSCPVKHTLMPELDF
UniProt Q00G26, sequence (Q8WTS1 whole entry, looked up): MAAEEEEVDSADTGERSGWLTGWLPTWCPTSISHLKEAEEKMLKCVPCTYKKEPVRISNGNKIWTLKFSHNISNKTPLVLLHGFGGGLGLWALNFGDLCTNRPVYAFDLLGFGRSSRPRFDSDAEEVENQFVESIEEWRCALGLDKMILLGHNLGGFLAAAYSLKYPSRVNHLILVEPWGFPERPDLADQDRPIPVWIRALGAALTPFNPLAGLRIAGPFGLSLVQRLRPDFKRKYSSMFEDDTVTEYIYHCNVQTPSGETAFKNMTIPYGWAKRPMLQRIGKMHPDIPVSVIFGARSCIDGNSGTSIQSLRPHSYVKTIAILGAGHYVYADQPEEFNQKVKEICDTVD

inhibition, inactive:
Nc1nc2c(nc(SCc3ccccc3Br)n2C2OC(CO)C(O)C2O)c(=O)[nH]1 (stereo not given) 3.58%
Cc1ccc(NC(=O)CSc2nc(O)c(Cc3ccccc3)c(=O)n2-c2ccccc2)cc1 7.2%
COCCCN1C(=O)C(=O)/C(=C(/O)c2ccc3c(c2)CC(C)O3)C1c1cccnc1 (stereo not given) -13.3%
COc1ccc2cc(C(=O)Nc3ccc(S(N)(=O)=O)cc3)sc(=O)c2c1OC -10.1%
CSc1ccc(CN2CCN(CCC(C)C)C(CCO)C2)cc1 (stereo not given) 1.38%
Cc1ccc2c(c1)C1CN(C)CCC1N2S(=O)(=O)c1ccc(Oc2ccc([N+](=O)[O-])cc2)cc1 (stereo not given) -13.9%
COc1cccc(N2C(=O)[C@H]3C(C(=O)c4cnccn4)=NN[C@H]3C2=O)c1 13.8%
COc1ccc(CNC(=O)N[C@H](C(=O)O)C(C)C)cc1OC -6.93%
CC1(C)CC(CC(=O)Nc2nccs2)(c2ccccc2)CCO1 (stereo not given) 2.38%
CC(=O)c1c[nH]c2ccc(C)cc2c1=O 0.04%
O=C(NCC1CCCCN1)c1cc(OCC(F)(F)F)ccc1OCC(F)(F)F (stereo not given) 1.12%
CC1CCc2cc(F)cc3c(=O)c(C(=O)O)cn1c23 (stereo not given) 8.1%
CCCCOc1ccc(OCCCN2CCOCC2)cc1 -4.9%
COc1cc2ccc(=O)oc2c(O)c1OCC=C(C)C -9.96%
COc1ccccc1C(=O)N=C1NC(=O)CC2C(=O)NCCN12 (stereo not given) -12.7%
COc1cc(C(=S)N(C)C)ccc1O 10.5%
CCn1c(N2CCN(CC(=O)c3c(C)n(C)c4ccc(OC)cc34)CC2)nc2c1c(=O)[nH]c(=O)n2C 8.43%
COc1ccc(C(=O)OCc2cc3cccc(C)c3[nH]c2=O)cc1 8.03%
COCc1cc(=O)[nH]c(/N=C(\N)Nc2ccc(Oc3ccccc3)cc2)n1 -7.26%
N/C(=N\OC(=O)CCCOc1ccc(Cl)cc1Cl)c1ccncc1 14.3%
CCOc1cc2c3c(c1)C(C)=CC(C)(C)N3C(=O)C2=O 45.4%
CC1(C)CC(=O)C(C2=NC(C)(C)Cc3ccccc32)=C(O)C1 -2.8%
O=C1CCCCCN1Cc1ccccc1 9.82%
C#CCOc1ccc2c(C)cc(=O)oc2c1 3.78%
Cc1ccc2c(c1)OC(=O)CC2c1ccccc1 (stereo not given) -5.6%
CS(=O)(=O)NCc1ccc(C(=O)NCc2ccccc2)cc1 -6.72%
C/C(=N/N1CCN(Cc2cccc3ccccc23)CC1)c1cccnc1 -8.01%
Cc1cccc(Nc2ncccc2C(=O)O)c1C -0.22%
Cc1ccc(OCCSc2ncccn2)c(C)c1 -4.83%
O=C(Cc1ccccc1[N+](=O)[O-])NCc1ccncc1 -4.03%
Cc1cc(OCC(=O)C(C)(C)C)c2c(C)c(C)c(=O)oc2c1 -3.13%
CCOC(=O)c1c(O)c2c([nH]c1=O)CCCC2 -6.36%
O=C(N/C(=C/C=C\c1ccccc1)C(=O)N1CCOCC1)c1ccc(Br)cc1 -0.71%
CC(CN1c2ccccc2Sc2ccccc21)N(C)C (stereo not given) -12.2%
COc1ccc(NC(=O)N2CCCCC2c2cccnc2)cc1 (stereo not given) -6.11%
NS(=O)(=O)c1cc2c(cc1C(F)(F)F)NC(Cc1ccccc1)NS2(=O)=O (stereo not given) 1.6%
COc1ccc([C@H]2[C@H](C(=O)OC(C)(C)C)N3N=Cc4ccccc4C3C23C(=O)c2ccccc2C3=O)cc1OC (stereo not given in full) 0.07%
CCOC(=O)C1=C(C)NC(C)=C(C(=O)OC)C1c1cccc([N+](=O)[O-])c1 (stereo not given) 3.99%
CC(=Nc1ccccc1)C1=C(O)CCCC1=O 0.34%
O=c1c(C(c2ccccc2)c2c(O)sc3ccccc3c2=O)c(O)sc2ccccc12 1.05%
Cc1ccc(N2C(=O)c3ccccc3C2=O)cc1C -3.44%
CN(CCc1cnn(C)c1)Cc1nc(CC2CC2)no1 2.59%
CCOC(=O)c1ccc2[nH]c(C)c(CCC(C)=O)c(=O)c2c1 -10.6%
O=C(NCCc1c[nH]c2ccccc12)OCCSS(=O)(=O)O 6.19%
CCn1cc(C(=O)O)c(=O)c2cc(F)c(N3CCNCC3)cc21 -3.3%
CC1(C)CC(=O)c2cn3c(nc2C1)nc1ccccc13 -0.46%
Cc1ccc(C(=O)O)cc1NC(=O)c1cccs1 -5.26%
CC(C)NNC(=O)c1ccncc1 0.95%
CC(=O)N(CCC1(C(C)C)CCOC(C)(C)C1)Cc1ccco1 (stereo not given) 7.02%
CC(=O)N=c1sc(S(N)(=O)=O)nn1C 1.87%
